Numbering of substitutions follows the chain as printed; changes in the protein carry UniProt numbers. Some of the results follow.

T1: RBFOX1 RRM (Homo sapiens, UniProt Q9NWB1 109-208)
T1 sequence: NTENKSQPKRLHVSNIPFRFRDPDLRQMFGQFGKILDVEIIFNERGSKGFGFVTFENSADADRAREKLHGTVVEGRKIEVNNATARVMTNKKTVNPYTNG

B1: CUGACGC (DNA:RNA)
RNA: GGGAGACCGGAAUUCAGAUUGUCCCUGACGCUUAAAUCCCGUCGUAGCCACCA
DNA 1: CAATCTGAATTCCGGTCTCCC
DNA 2: TGGTGGCTACGACGGGATT
B2: UAACGAC (DNA:RNA)
RNA: B1 RNA with C25U, U26A, G27A, A28C, C29G, G30A
DNA 1: CAATCTGAATTCCGGTCTCCC
DNA 2: TGGTGGCTACGACGGGATT
B3: GUUAUUA (DNA:RNA)
RNA: B1 RNA with C25G, G27U, C29U, G30U, C31A
DNA 1: CAATCTGAATTCCGGTCTCCC
DNA 2: TGGTGGCTACGACGGGATT
B4: GUGCCUC (DNA:RNA)
RNA: B1 RNA with C25G, A28C, G30U
DNA 1: CAATCTGAATTCCGGTCTCCC
DNA 2: TGGTGGCTACGACGGGATT
B5: UUCUGAU (DNA:RNA)
RNA: B1 RNA with C25U, G27C, A28U, C29G, G30A, C31U
DNA 1: CAATCTGAATTCCGGTCTCCC
DNA 2: TGGTGGCTACGACGGGATT
B6: CUAAUCA (DNA:RNA)
RNA: B1 RNA with G27A, C29U, G30C, C31A
DNA 1: CAATCTGAATTCCGGTCTCCC
DNA 2: TGGTGGCTACGACGGGATT
B7: CAUGUGG (DNA:RNA)
RNA: B1 RNA with U26A, G27U, A28G, C29U, C31G
DNA 1: CAATCTGAATTCCGGTCTCCC
DNA 2: TGGTGGCTACGACGGGATT
B8: CCGACUU (DNA:RNA)
RNA: B1 RNA with U26C, G30U, C31U
DNA 1: CAATCTGAATTCCGGTCTCCC
DNA 2: TGGTGGCTACGACGGGATT
B9: GGUUUUC (DNA:RNA)
RNA: B1 RNA with C25G, U26G, G27U, A28U, C29U, G30U
DNA 1: CAATCTGAATTCCGGTCTCCC
DNA 2: TGGTGGCTACGACGGGATT
B10: GAGAUAA (DNA:RNA)
RNA: B1 RNA with C25G, U26A, C29U, G30A, C31A
DNA 1: CAATCTGAATTCCGGTCTCCC
DNA 2: TGGTGGCTACGACGGGATT
B11: CCGAUUC (DNA:RNA)
RNA: B1 RNA with U26C, C29U, G30U
DNA 1: CAATCTGAATTCCGGTCTCCC
DNA 2: TGGTGGCTACGACGGGATT
B12: CCAGGGA (DNA:RNA)
RNA: B1 RNA with U26C, G27A, A28G, C29G, C31A
DNA 1: CAATCTGAATTCCGGTCTCCC
DNA 2: TGGTGGCTACGACGGGATT
B13: UCUGUUG (DNA:RNA)
RNA: GGGAGACCGGAAUUCAGAUUGUCCUCUGUUGUUAAAUCCCGUCGUAGCCACCA
DNA 1: CAATCTGAATTCCGGTCTCCC
DNA 2: TGGTGGCTACGACGGGATT
B14: UCGCAAA (DNA:RNA)
RNA: B13 RNA with U27G, G28C, U29A, U30A, G31A
DNA 1: CAATCTGAATTCCGGTCTCCC
DNA 2: TGGTGGCTACGACGGGATT
B15: GACCACC (DNA:RNA)
RNA: B1 RNA with C25G, U26A, G27C, A28C, C29A, G30C
DNA 1: CAATCTGAATTCCGGTCTCCC
DNA 2: TGGTGGCTACGACGGGATT
B16: CAAAUGG (DNA:RNA)
RNA: B1 RNA with U26A, G27A, C29U, C31G
DNA 1: CAATCTGAATTCCGGTCTCCC
DNA 2: TGGTGGCTACGACGGGATT
B17: UCUGAAG (DNA:RNA)
RNA: B13 RNA with U29A, U30A
DNA 1: CAATCTGAATTCCGGTCTCCC
DNA 2: TGGTGGCTACGACGGGATT
B18: CUUUAGA (DNA:RNA)
RNA: B1 RNA with G27U, A28U, C29A, C31A
DNA 1: CAATCTGAATTCCGGTCTCCC
DNA 2: TGGTGGCTACGACGGGATT
B19: UGGACCG (DNA:RNA)
RNA: B1 RNA with C25U, U26G, G30C, C31G
DNA 1: CAATCTGAATTCCGGTCTCCC
DNA 2: TGGTGGCTACGACGGGATT
B20: AGGUCUG (DNA:RNA)
RNA: B1 RNA with C25A, U26G, A28U, G30U, C31G
DNA 1: CAATCTGAATTCCGGTCTCCC
DNA 2: TGGTGGCTACGACGGGATT

This test concerns the target T1, RBFOX1 RRM. In words: EMSA; HiTS-Eq, 1 nM pool, 10 min; buffer printed only for the single-RNA assays: 10 mM Tris pH 7.5, 150 mM NaCl, 3.4 mM EDTA, 0.001% NP-40, 30 C. The settings on record: tags: His6 N-terminal (pET28a); label: 5' 32P. The method, boiled down: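 Relative association constants, normalised to the cognate motif, were derived by comparing read counts of each RNA species with those of the control reaction. The RNA sequenced was the free fraction, separated by 8% native PAGE after a 10 min equilibration in 50 µL of 1 nM 5′-radiolabelled RNA (7 randomized nucleotides) with increasing concentrations of purified wild-type or mutant RbFox RRM.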
For the molecule B1, the binding signal is 0.00839 KA relative to UGCAUGU. Turning to B2, the binding signal was 0.00611 KA relative to UGCAUGU. B3: the binding signal is 0.00524 KA relative to UGCAUGU. B4: the binding signal was 0.0183 KA relative to UGCAUGU. In the case of B5 it was 0.0162 KA relative to UGCAUGU. Take B6: the binding signal was 0.000405 KA relative to UGCAUGU. As to B7, the binding signal is 0.00494 KA relative to UGCAUGU. Consider B8, for which the binding signal was 0.00455 KA relative to UGCAUGU. In the case of B9 it was 0.00906 KA relative to UGCAUGU. In the case of B10 it was 0.00571 KA relative to UGCAUGU; in that of B11, 0.00484 KA relative to UGCAUGU; in that of B12, 0.00527 KA relative to UGCAUGU.

As for B13, the binding signal is 0.0254 KA relative to UGCAUGU.

As for B14, the binding signal is 0.00754 KA relative to UGCAUGU. Take B15: the binding signal is 0.00274 KA relative to UGCAUGU. B16: the binding signal was 0.00705 KA relative to UGCAUGU.

B17: the binding signal is 0.0166 KA relative to UGCAUGU. Take B18: the binding signal was 0.00768 KA relative to UGCAUGU. For B19, the binding signal was 0.0269 KA relative to UGCAUGU.

B20: the binding signal was 0.0219 KA relative to UGCAUGU.
